# Measured values from PubChem BioAssay AID1345082 (National Center for Advancing Translational Sciences (NCATS), 2018).
# Among all 94,000 compounds or so, about 4,000 (4.3%) were called active. This list was built around the results that the source calls inconclusive (neither active nor inactive); the mix of calls is not that of the screen. Calls come from the whole dose curve; as a rule, active = well fitted inhibition curve with a large enough effect; inconclusive = small, poorly fitted or top-dose-only effect; inactive = no such curve, though single readings can be large or run the other way. Potencies of inconclusive entries are doubtful fits and often do not repeat.
# Assay: Cytotoxic Profiling in NIH 3T3 Cell Line of Diverse Libraries Using Quantitative High-Throughput Screening; note: nearly all actives have a fitted effect of over 55% in size
# Conditions: NIH 3T3 viability, CellTiter-Glo ATP luminescence, 48-72 h; activity change, negative = cytotoxicity: at 96.7 µM (top of the series) unless noted; series mostly up to 96.7 µM
# Procedure, shortened: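 Cytotoxicity was measured by CellTiter-Glo ATP luminescence after 48 or 72 h compound exposure at 37 °C. Mouse NIH 3T3 fibroblasts were seeded at 400 cells/well and dosed by 23 nL pin transfer.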
# % is set by controls: 0 for no effect and ±100 for the full control effect; potency is the fitted concentration of half-maximal effect; tags give direction and shape of the fitted curve.
SMILES,Potency,"activity change, negative = cytotoxicity",outcome
COCCOc1ccc2c(n1)CCN(C(=O)NC1CCCC1)C2,"inconclusive: 31.6 µM [inhibitor, partial curve]",,
O=C(Cc1ccccc1)NC[C@H]1Cn2c(-c3ccc4c(c3)OCO4)cnc2CO1,,inactive: -23.1% [at 174 µM],
O=C(Nc1ccc2c(N3CCOCC3)ncnc2c1)c1ccc(Br)o1,"inconclusive: 44.7 µM [inhibitor, partial curve, poor fit]",,
Cn1ncc2c(C(=O)NCc3ccc(C(F)(F)F)cc3)cc(-c3cccc(F)c3)nc21,active: 44.7 µM,,
O=C(Nc1cccc(F)c1)N1CCCC2(C1)Nc1cccnc1NC2=NCc1ccccc1 (stereo not drawn),"inconclusive: 50.1 µM [inhibitor, partial curve, poor fit]",,
Cc1noc(C)c1-c1cc2cc(C(C)C)oc2c(-c2ccnn2C)n1,"inconclusive: 56.2 µM [inhibitor, partial curve, poor fit]",,
Oc1cccc(-c2cc(C3=CCOCC3)c3cncn3c2)c1,active: 100 µM,,
c1ccc(CN2CCCCC2c2nc(CCOCC3CCCC3)no2)nc1 (stereo not drawn),"inconclusive: 44.7 µM [inhibitor, partial curve, poor fit]",,
Cc1nn2c(c1-c1ccccc1-c1ccccc1)N(Cc1ccccc1)CCC2,active: 12.6 µM,,
CCc1ccccc1NC(=O)[C@H]1CCC[C@H]1NC(=O)c1ccc(OC)nc1,,,inactive
COCCNc1cc(-c2noc([C@@H]3CCCN3Cc3ccccn3)n2)ccn1,"inconclusive: 126 µM [inhibitor, single point]",,
O=C(O)CCC(=O)N1Cc2[nH]cnc2C[C@H]1c1nc(-c2ccc(OC(F)(F)F)cc2)no1,,inactive: -12.5%,
COCCN1C(=O)c2cccn2CC1CNC(=O)c1cc2ccccc2[nH]1 (stereo not drawn),,inactive: -6.67%,
COCCNC(=O)c1ccc2oc(-c3ccncc3Cl)nc2c1,,inactive: -16.7% [at 138 µM],
O=C1NCCCN1C1CCN([S+](=O)([O-])c2cccc(C(F)(F)F)c2)CC1,inactive,,
COc1cccc(C(=O)N2CCCC(N3C(=O)c4c(c(C)nn4-c4ccccc4)C3C(C)C)C2)c1 (stereo not drawn),"inconclusive: 50.1 µM [inhibitor, partial curve, poor fit]",,
c1ccc(Nc2cc3c(cn2)NCCN(Cc2ccc4[nH]ccc4c2)C3)cc1,"inconclusive: 63.1 µM [inhibitor, partial curve, poor fit]",,
CCOCC(=O)N1CCc2nc(N3CCN(C)CC3)sc2C1,,inactive: 1.29%,
O=C1CN(Cc2ccc(-c3ccccc3)cc2)CCN1c1cc(Cl)ncn1,"inconclusive: 44.7 µM [inhibitor, partial curve, poor fit]",,
O=C(c1c[nH]c2ccccc12)N1CCN(c2cc(-c3cccs3)[nH]n2)CC1,"inconclusive: 31.6 µM [inhibitor, full curve, poor fit]",,
CCOc1ccccc1CN1CCN(c2cccc(C#N)n2)CC1CCO (stereo not drawn),"inconclusive: 50.1 µM [inhibitor, partial curve, poor fit]",,

SMILES,Potency,"activity change, negative = cytotoxicity",outcome
CCCCCNC(=O)CCN(CC)C(=O)c1cc(C)oc1C,"inconclusive: 70.8 µM [inhibitor, single point]",,
CN(C)C(=O)C1CCCCN1Cc1ccc(-c2cccs2)cc1 (stereo not drawn),"inconclusive: 79.4 µM [inhibitor, partial curve, poor fit]",,
COc1ccc(S(=O)(=O)N2CC(n3cnnc3C3CC3)C2)cc1,,inactive: -28.2%,
COCC(=O)N[C@H]1CC[C@]2(C)CC[C@@H]([C@H](C)C(=O)NCc3ccccn3)[C@H](O)[C@H]2[C@@H]1C,"inconclusive: 100 µM [inhibitor, partial curve, poor fit]",,
CN1CCN(C(=O)c2cccnc2)CC12CCC(=O)N(CC1CC1)CC2 (stereo not drawn),,,inactive
COc1cccc(N2C(=O)NC(=NC3CCCC3)C23CCCN(Cc2cccnc2)C3)c1 (stereo not drawn),"inconclusive: 50.1 µM [inhibitor, partial curve, poor fit]",,
CC1(C)C(=O)N(Cc2ccccc2)[C@H]2CN(Cc3ccncc3)C[C@H]2[S+]1(=O)[O-],"inconclusive: 112 µM [inhibitor, single point]",,
COc1ccc(C(=O)N2CCN(C(=O)c3cccc(-c4cccc(OC)c4)c3)CC2)cc1,"inconclusive: 70.8 µM [inhibitor, single point]",,
CCc1cc(N(C)Cc2ccc(OC)c(OC)c2)n2nccc2n1,"inconclusive: 50.1 µM [inhibitor, partial curve, poor fit]",,
COC(=O)c1ccc2nc(C[C@@H]3C[C@@H](C(C)C)[C@H](CNC(=O)N4CCOCC4)C=C3C)[nH]c2c1,"inconclusive: 44.7 µM [inhibitor, partial curve, poor fit]",,
CCOCCn1nc(C)cc1C(=O)N[C@H](c1ccccn1)C1CC(O)C1 (stereo partly drawn),,inactive: 4.33%,
COCCN(C)C(=O)C(C)(C)Oc1nn(Cc2cccc(Cl)c2)c2ccccc12,active: 79.4 µM,,
COCc1ccc2c(c1)c(OC(C)(C)C(=O)NCC(F)(F)F)nn2Cc1ccccc1,"inconclusive: 79.4 µM [inhibitor, partial curve, poor fit]",,
CN1CCC(Nc2nccc3c(=O)cc(N(C)c4ccccc4)oc23)CC1,"inconclusive: 89.1 µM [inhibitor, partial curve, poor fit]",,
COc1ccc(NC(=O)Cc2ccc(N(Cc3cccc(F)c3)C(=O)c3ccco3)cc2)cc1,"inconclusive: 44.7 µM [inhibitor, partial curve]",,
Cc1noc(-c2cn(C3CCN(C(=O)Cc4ccc(Br)cc4)CC3)nn2)n1,"inconclusive: 44.7 µM [inhibitor, partial curve, poor fit]",,
COCCOC1CCOC2(CCN(C(=O)c3ccccc3F)CC2)C1 (stereo not drawn),"inconclusive: 50.1 µM [inhibitor, partial curve, poor fit]",,
N#Cc1ccc(C(=O)N2CCC3(CC2)NC(=O)N(Cc2ccccc2Cl)C3=O)cc1,,inactive: -21.5%,
Cc1ccc(CN2CC(N(C3CCOCC3)S(C)(=O)=O)C2)cc1,,inactive: -4.96%,
CC(=O)c1ccc(NC(=O)Cn2cccc2-c2nc(-c3ccc4c(c3)OCO4)no2)cc1,"inconclusive: 35.5 µM [inhibitor, partial curve, poor fit]",,
O=c1ncn(CC2CC2)c2ccc(-c3ccc(F)cc3F)nc12,active: 100 µM,,

SMILES,Potency,"activity change, negative = cytotoxicity",outcome
CC(C)CN(CCCNC(=O)C1CCN(c2cnn(C)c(=O)c2)C1)CC(C)C (stereo not drawn),,inactive: -5.28%,
Cc1cc(NS(=O)(=O)c2ccc3c(c2)CN(C(=O)CCC(C)C)CC3)no1,"inconclusive: 50.1 µM [inhibitor, partial curve, poor fit]",,
COc1ccccc1C(=O)NC1CCN(c2ccc3nnc(-c4ccccc4)n3n2)CC1,"inconclusive: 44.7 µM [inhibitor, partial curve, poor fit]",,
CC(=O)N1CCCN(C(=O)c2cnc3c(c2)N(C(=O)Cc2ccc(C(C)C)cc2)CCC3)CC1,"inconclusive: 50.1 µM [inhibitor, partial curve, poor fit]",,
COc1cc(Cl)ccc1C(=O)NC1CCN(c2cc(-c3cccs3)[nH]n2)C1 (stereo not drawn),"inconclusive: 50.1 µM [inhibitor, partial curve, poor fit]",,
CCc1ccc(Cn2nc(C3CC3)nc2-c2cnn(C)c2)cc1,"inconclusive: 56.2 µM [inhibitor, partial curve, poor fit]",,
c1ccc(-c2nnc3n2CCN(Cc2ccsc2)C3)cc1,"inconclusive: 112 µM [inhibitor, single point]",,
Cc1ccc(C(=O)N2CCC(N3C(=O)CCC3C(=O)NCc3ccccc3)CC2)cc1 (stereo not drawn),,,inactive
Cc1ccc(CN2CCN(C(=O)CCC[C@H]3NC[C@@H]4C[C@H]3CN(Cc3ccccc3)C4)CC2)cc1,"inconclusive: 44.7 µM [inhibitor, partial curve, poor fit]",,
O=C1c2cnc(-c3ccc(O)c(F)c3)nc2OCCN1c1ccccc1,active: 8.91 µM,,
O=C(NCC1CN(CC2CC2)CC12CN(c1ccccc1)C2)c1ccccc1 (stereo not drawn),active: 89.1 µM,,
COc1cccc(-c2ccc(C(=O)N3CCC(C(=O)N4CCC(Cc5ccccc5)CC4)CC3)cc2)c1,"inconclusive: 50.1 µM [inhibitor, partial curve, poor fit]",,
CCOC(=O)C1(Cc2ccccc2C)CCCN(Cc2cn(CC(N)=O)c3ccccc23)C1 (stereo not drawn),"inconclusive: 79.4 µM [inhibitor, partial curve]",,
O=C1CC2(CCN(c3nc(-c4ccccc4)no3)CC2)CN1Cc1ccccc1,"inconclusive: 44.7 µM [inhibitor, partial curve, poor fit]",,
CCOC(=O)c1cccc(NC(=O)N2CC[C@@H](CC(=O)NCc3ccc(OC)c(OC)c3)[C@@H](CC)C2)c1,,inactive: -24.7%,
OCC1CN(Cc2ccccc2)CC12CCN(Cc1ccncc1)CC2 (stereo not drawn),"inconclusive: 70.8 µM [inhibitor, partial curve, poor fit]",,
O=C(O)C[C@@H]1CCN(C(=O)c2cccs2)C[C@@H]1CCN1CCN(c2cccc(C(F)(F)F)c2)CC1,"inconclusive: 89.1 µM [inhibitor, single point]",,
COc1ccc2c(c1)OCC(CNC(=O)c1ccc(N3CCN(C)CC3)cc1)C2 (stereo not drawn),"inconclusive: 79.4 µM [inhibitor, single point]",,
Cc1ccc(C(=O)N2CCC3(CC2)NC(=O)N(Cc2ccc(F)cc2)C3=O)cc1F,"inconclusive: 44.7 µM [inhibitor, partial curve, poor fit]",,
c1ccc(C2=NOC3(CCCN(CC4CCCC4)C3)C2)cc1 (stereo not drawn),"inconclusive: 17.8 µM [inhibitor, partial curve, poor fit]",,
Cc1cc(C(=O)NC2CCN(c3ccnc4ccnn34)CC2)ccc1Cl,"inconclusive: 31.6 µM [inhibitor, partial curve, poor fit]",,
